Measured values: PubChem BioAssay AID588591 (National Center for Advancing Translational Sciences (NCATS), 2011)
Values joined by “and” are separate entries in the source; they are usually repeats but may differ in a detail not shown here. Identical values can stand only once. In all, about 390,000 compounds went through this assay and about 4,700 (1.2%) were called active. Inconclusive results, whose numbers are uncertain, are shown with a selection of clear calls. Calls follow the shape of the dose curve; as a rule, active = well fitted inhibition curve with a large enough effect; inconclusive = small, poorly fitted or top-dose-only effect, or another doubt; inactive = no such curve, though single readings can be large or run the other way. A potency beside an inconclusive call is a rough fit, not a confirmed value. Some structures have more than one record in an assay (separate samples or runs), and their calls can disagree.

target: DNA polymerase eta (Homo sapiens) (UniProt Q9Y253); test: qHTS for Inhibitors of Polymerase Eta; conditions: recombinant Pol eta, fluorescent DNA replication assay; series mostly up to 114 µM
Summary of the method: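 Pol eta at 10 nM preincubated with compounds 15 min at room temperature; reaction started with fluorescent substrate (50 nM final) and read kinetically at 0 and 10 min.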
Potency is read from the fitted curve at half-maximal effect; tags tell the direction and shape of the fitted curve.

UniProt Q9Y253, sequence (Q9Y253 whole entry, looked up): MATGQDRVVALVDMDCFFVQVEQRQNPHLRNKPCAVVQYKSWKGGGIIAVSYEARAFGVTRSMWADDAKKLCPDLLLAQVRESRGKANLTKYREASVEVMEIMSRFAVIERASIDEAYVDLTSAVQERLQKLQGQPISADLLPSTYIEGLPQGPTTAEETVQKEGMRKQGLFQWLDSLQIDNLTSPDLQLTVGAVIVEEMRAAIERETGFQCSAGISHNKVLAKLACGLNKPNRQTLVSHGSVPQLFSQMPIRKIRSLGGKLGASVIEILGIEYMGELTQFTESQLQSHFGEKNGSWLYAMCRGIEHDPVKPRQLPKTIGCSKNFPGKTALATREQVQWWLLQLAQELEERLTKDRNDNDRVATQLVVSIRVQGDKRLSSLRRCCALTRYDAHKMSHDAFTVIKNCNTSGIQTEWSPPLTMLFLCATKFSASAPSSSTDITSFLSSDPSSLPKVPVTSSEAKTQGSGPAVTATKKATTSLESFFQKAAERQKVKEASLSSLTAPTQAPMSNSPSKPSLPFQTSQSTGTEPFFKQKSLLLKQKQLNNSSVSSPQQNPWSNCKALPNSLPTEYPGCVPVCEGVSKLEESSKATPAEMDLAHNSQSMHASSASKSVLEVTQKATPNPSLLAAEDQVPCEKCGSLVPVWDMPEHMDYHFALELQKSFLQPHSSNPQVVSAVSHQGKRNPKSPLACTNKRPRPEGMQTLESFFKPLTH

SMILES	Potency
COc1cc(/C=C2\Oc3cc(O)ccc3C2=O)ccc1O	inactive
CCc1c(C)sc(NC(=O)c2ccoc2C)c1C(N)=O	inactive
O=c1cc(O)c2c(=O)n(C3CCCCC3)c3ccccc3c2o1	inconclusive: 89.1 µM [inhibitor, single point]
Cc1ccc(OCC(=O)Nc2ccc(N3CCN(S(C)(=O)=O)CC3)cc2)c(C)c1	inactive
Cc1ccc(-c2csc3ncnc(SCc4ccc(C(=O)O)cc4)c23)cc1	active: 79.4 µM
COc1ccc(-c2coc3cc(O)ccc3c2=O)cc1O	inactive
COc1ccc(CCn2c(=O)c3cccnc3n(CC(=O)Nc3ccc(C)c(F)c3)c2=O)cc1OC	inactive
COc1ccc(Br)c(C(=O)Nc2cc3c(cc2N2CCOCC2)n(C)c(=O)n3C)c1	inactive
CCOc1ccc(NC(=O)c2c(NCc3cccnc3)sc3c2CCCC3)cc1	inactive
COCCCn1c(C(=O)Nc2ccc3c(c2)OCO3)cc2c(=O)n3cccc(C)c3nc21	inconclusive: 3.16 µM [inhibitor, full curve, poor fit]
CC(=O)Nc1cccc(C(=O)/C=C/c2ccc(C)cc2)c1	inconclusive: 15.8 µM [inhibitor, partial curve, poor fit]
Cc1ccc(C(=O)Oc2coc(CSc3nnc(NC(=O)c4cccs4)s3)cc2=O)cc1	inconclusive: 10 µM [inhibitor, full curve, poor fit]
Cc1csc(N=Cc2ccc([N+](=O)[O-])o2)n1	active: 17.8 µM
O=C(COC(=O)Cc1ccc(S(=O)(=O)N2CCCCC2)s1)Nc1ccc2c(c1)OCO2	inconclusive: 35.5 µM [inhibitor, partial curve, poor fit]
CCOc1cc(/C=C2\C(=O)N(c3cccc(C(F)(F)F)c3)C(=O)c3ccccc32)ccc1O	inconclusive: 5.62 µM [inhibitor, full curve, poor fit]
O=C(CSc1nnc(-c2ccc(Cl)cc2)n1Cc1ccco1)c1cccs1	inconclusive: 89.1 µM [inhibitor, partial curve]
O=C1C(=Cc2ccco2)C(=O)c2ccccc21	inconclusive: 4.47 µM [inhibitor, full curve, poor fit]
CC(=O)Oc1ccc2occ(/C=N/c3cc(=O)[nH]c(=S)[nH]3)c(=O)c2c1	inconclusive: 44.7 µM [inhibitor, partial curve, poor fit]
Cc1cc(C)c(-c2csc(NC(=O)C3=COCCO3)n2)cc1C	inconclusive: 89.1 µM [inhibitor, partial curve, poor fit]
CN(C)Cc1cc(O)c(CN(C)C)cc1O	active: 79.4 µM
Cc1cc(C(=O)CSc2nnc(-c3ccncc3)n2-c2ccccc2)c(C)n1C	inconclusive: 100 µM [inhibitor, partial curve, poor fit]
Cc1cccc(-c2noc(-c3cccnc3NCc3ccccc3Cl)n2)c1	inactive

SMILES	Potency
O=C1CC(c2ccc(O)c(O)c2)Oc2c1ccc(O)c2O (stereo not given)	active: 0.794 µM
CC(=O)Nc1ccc(S(=O)(=O)NC2(C(F)(F)F)C(=O)NC(C)=C2C#N)cc1 (stereo not given)	inconclusive: 44.7 µM [inhibitor, partial curve, poor fit]
O=c1[nH]c2ccccc2n2c(-c3ccccc3)nnc12	inconclusive: 14.1 µM [inhibitor, full curve, poor fit]
O=C(CC1(O)C(=O)N(CCc2ccccc2)c2ccc(Br)cc21)c1ccccc1 (stereo not given)	inconclusive: 56.2 µM [inhibitor, partial curve, poor fit]
Cn1c(=O)oc2cc(S(=O)(=O)NCCC(=O)N3CCN(c4ccccc4F)CC3)ccc21	inconclusive: 56.2 µM [inhibitor, partial curve, poor fit]
CCOc1ccccc1CNC(=O)C1CCN(c2nnc(C)c3c(C)n(-c4ccc(C)cc4)nc23)CC1	inconclusive: 89.1 µM [inhibitor, partial curve] and inconclusive: 44.7 µM [inhibitor, partial curve]
COC(=O)CCC/C=C1/SCC(NC(=O)c2ccccc2)C1O (stereo not given)	inconclusive: 89.1 µM [inhibitor, single point]
COc1ccc(N2CCN(C(=O)c3ccc(Br)o3)CC2)cc1	inactive
NC(=O)[C@@H]1CCNc2c(I)cc([N+](=O)[O-])cc2C(=O)N[C@@H](CCC(=O)O)C(=O)N[C@@H](CO)C(=O)N1	active: 22.4 µM
CCc1cccc(NC(=O)c2cc(S(=O)(=O)N3CCCCCC3)cn2C)c1	inconclusive: 100 µM [inhibitor, partial curve, poor fit]
NC(=O)CSc1nnnn1-c1cccc(Cl)c1	inconclusive: 50.1 µM [inhibitor, partial curve, poor fit]
CC(=O)c1ccc2c(c1)C1C=CCC1C(C(=O)O)N2 (stereo not given)	active: 1 µM
O=C(COC(=O)C1CC2C=CC1C2)Nc1c(Br)cc([N+](=O)[O-])cc1Br (stereo not given)	inconclusive: 15.8 µM [inhibitor, full curve, poor fit]
CC(=O)N1CCc2cc(S(=O)(=O)C(C)CC(=O)NCc3ccc(C)o3)ccc21 (stereo not given)	inconclusive: 89.1 µM [inhibitor, partial curve, poor fit]
Cc1cccc(C(=O)Nc2nnc(S(=O)(=O)N3CCC(C)CC3)s2)c1	inactive and active: 79.4 µM
Cc1nn(CC2CC2)c(=O)n1-c1ccc(F)cc1	inconclusive: 79.4 µM [inhibitor, partial curve, poor fit]
Cc1sc2nc(SCC(=O)Nc3cccc(C(=O)O)c3)[nH]c(=O)c2c1C	inconclusive: 15.8 µM [inhibitor, full curve]
CCOC(=O)Cc1c(C)nc2c(-c3ccc(OC)c(OC)c3)c(C)nn2c1C	inactive
Cc1nc2c(C#N)c[nH]n2c(=O)c1CCO	inconclusive: 89.1 µM [inhibitor, partial curve, poor fit]
CN(C)CCCN1c2ccccc2Sc2ccc(Cl)cc21	inconclusive: 50.1 µM [inhibitor, partial curve, poor fit]
CC(=O)c1cccc(NC(=O)c2ccc3c(c2)CCCC3)c1	inconclusive: 89.1 µM [inhibitor, partial curve, poor fit]
O=C1NC(=S)SC1=C1CCCCCC1	inconclusive: 22.4 µM [inhibitor, partial curve]

SMILES	Potency
O=C1C(C=NCc2ccncc2)=C(O)c2ccccc21	inactive
O=C(NCCn1cc(SCc2ccc(C(F)(F)F)cc2)c2ccccc21)c1ccccc1F	inconclusive: 56.2 µM [inhibitor, partial curve]
O=C(CN1C(=O)NC2(CCCCCC2)C1=O)c1ccc(Cl)cc1	inconclusive: 100 µM [inhibitor, single point]
N#CC(C(=O)CCN1C(=O)C2CC=CCC2C1=O)c1nc2ccccc2[nH]1 (stereo not given)	inconclusive: 31.6 µM [inhibitor, single point]
Cc1c(C(=O)O)cccc1-c1ccc(/C=C2\SC(=O)NC2=O)o1	active: 22.4 µM
Cc1cc(=O)oc2cc(NC(=O)COc3ccccc3[N+](=O)[O-])ccc12	inconclusive: 25.1 µM [inhibitor, partial curve]
CCC(C)Cn1c(COc2ccc(OC)cc2)nc2ccccc21 (stereo not given)	inconclusive: 100 µM [inhibitor, partial curve, poor fit]
CC(=O)OCC1=C(C(=O)O)N2C(=O)C(NC(=O)Cn3nc(C(F)F)c(Cl)c3C)C2SC1 (stereo not given)	active: 20 µM
CCc1c(C)sc(NC(=S)NC(C)C2CCCO2)c1C(=O)OC (stereo not given)	inconclusive: 89.1 µM [inhibitor, partial curve, poor fit]
CC(C(=O)O)n1c2ccccc2c2cnn(C)c(=O)c21 (stereo not given)	inconclusive: 17.8 µM [inhibitor, full curve]
COc1ccc(NC(=O)Nc2nnc(SCC(=O)Nc3cccc(C)c3C)s2)cc1	inactive
CC(=O)Nc1ccc(N/C=C/C(=O)c2ccco2)cc1	inconclusive: 22.4 µM [inhibitor, partial curve, poor fit]
COc1ccc(OC)c(-c2[nH]nc3c2C(c2ccco2)C(C#N)=C(N)O3)c1 (stereo not given)	inconclusive: 14.1 µM [inhibitor, partial curve, poor fit]
CCc1ccc(C(=O)CC2(O)C(=O)N(CCc3ccccc3)c3ccc(Br)cc32)cc1 (stereo not given)	inconclusive: 79.4 µM [inhibitor, partial curve, poor fit]
CCOc1ccc(NC(=O)CN(C)C(=O)c2cc3c(s2)CCC3)cc1OCC	active: 3.55 µM
COCCn1c(CN2CCN(c3cccc(Cl)c3)CC2)nc2c1c(=O)n(C)c(=O)n2C	inconclusive: 79.4 µM [inhibitor, partial curve, poor fit]
Cn1c(SCC(=O)Nc2ccc3nc(SCC(=O)N4CCCC4)sc3c2)nnc1-c1ccc(N)cc1	inconclusive: 2.82 µM [inhibitor, full curve, poor fit]
Cc1oc2cc3oc(=O)c(CCC(=O)NCCC(=O)O)c(C)c3cc2c1C	active: 56.2 µM
O=C(c1cc2ccccc2o1)N1CCN(S(=O)(=O)c2ccc(Cl)s2)CC1	inconclusive: 14.1 µM [inhibitor, partial curve, poor fit]
CSc1ccc(/C=C2\C(=N)N3N=C(CC(=O)N4CCCCC4)SC3=NC2=O)cc1	active: 44.7 µM
O=C(CN1C(=O)S/C(=C\c2cccs2)C1=O)Nc1ccc(O)cc1C(=O)O	inconclusive: 100 µM [inhibitor, partial curve, poor fit]
